{"source": "the supplement of paper PMC3334620", "note": "Over roughly 33,000 sequences, “E-score (-0.5 to 0.5)” has its median near -0.016; the highest 2% begin near 0.31. The list shows a part of the results."}
{"target": "Cst6 (UniProt P40535)", "experiment": "PBM E-score (8-mer binding enrichment) (E-score (-0.5 to 0.5)); higher = stronger / more preferred TF binding; most listed sequences are background and not binding sites", "details": "protein concentration: 200 nM; construct: GST-DNA-binding domain", "summary_of_the_method": "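Full-length yeast transcription factors or their DNA-binding domains, GST-tagged and expressed with PURExpress, were applied at about 100-200 nM to universal all-10-mer Agilent arrays. These arrays had been made double-stranded by primer extension on fresh or once-stripped slides. Detection used fluorescent anti-GST, normalisation used masliner, and E-scores for ungapped eight-base words pooled with reverse complements came from the Universal PBM Analysis Suite.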"}
{"sequence": "CCACGGTC", "PBM E-score": -0.371}
{"sequence": "ACGACCAT", "PBM E-score": -0.165}
{"sequence": "ATTCCTAG", "PBM E-score": -0.0362}
{"sequence": "ACGGCTTG", "PBM E-score": 0.108}
{"sequence": "CGGTGTGC", "PBM E-score": -0.192}
{"sequence": "ACTGTACA", "PBM E-score": 0.0222}
{"sequence": "TAAAAAAA", "PBM E-score": 0.211}
{"sequence": "GGTTGAGA", "PBM E-score": -0.136}
{"sequence": "TATCTGGA", "PBM E-score": -0.184}
{"sequence": "ACTTCTAC", "PBM E-score": -0.00244}
{"sequence": "CGCCGACA", "PBM E-score": -0.0834}
{"sequence": "CACGCCGC", "PBM E-score": 0.0528}
{"sequence": "AGCGTGTC", "PBM E-score": -0.153}
{"sequence": "AAGGCAGG", "PBM E-score": -0.132}
{"sequence": "AACGTGAG", "PBM E-score": -0.145}
{"sequence": "CAGCCAAC", "PBM E-score": -0.13}
{"sequence": "CTATATAA", "PBM E-score": 0.147}
{"sequence": "AATATTCT", "PBM E-score": 0.156}
{"sequence": "CAGAACTG", "PBM E-score": 0.0427}
{"sequence": "AGCGGTAT", "PBM E-score": 0.0321}
{"sequence": "CGGACCCA", "PBM E-score": -0.175}
{"sequence": "ATTATAGG", "PBM E-score": 0.0701}
{"sequence": "AAACCAAC", "PBM E-score": -0.0742}
{"sequence": "CAAGTGCA", "PBM E-score": -0.189}
{"sequence": "AATTACAC", "PBM E-score": 0.116}
{"sequence": "ATCGTATA", "PBM E-score": 0.104}
{"sequence": "GCAATTAC", "PBM E-score": 0.256}
{"sequence": "TAATCAAA", "PBM E-score": 0.228}
{"sequence": "AAACCTAT", "PBM E-score": 0.109}
{"sequence": "CAATAAGG", "PBM E-score": -0.0752}
{"sequence": "ACTGACCA", "PBM E-score": -0.219}
{"sequence": "ATGGCGGC", "PBM E-score": -0.124}
{"sequence": "CCTCTACG", "PBM E-score": -0.196}
{"sequence": "GCAGATCA", "PBM E-score": -0.231}
{"sequence": "ACCAGGAT", "PBM E-score": -0.0743}
{"sequence": "CCTCCGGC", "PBM E-score": -0.245}
{"sequence": "CTATATGA", "PBM E-score": 0.181}
{"sequence": "TCCTGACA", "PBM E-score": 0.111}
{"sequence": "ACACCAAT", "PBM E-score": 0.0554}
{"sequence": "TCGCTGAA", "PBM E-score": 0.0249}
{"sequence": "ATAAGTGG", "PBM E-score": 0.187}
{"sequence": "AACGTGCG", "PBM E-score": -0.0179}
{"sequence": "CTACTTCA", "PBM E-score": -0.103}
{"sequence": "CGCACCAC", "PBM E-score": -0.0217}
{"sequence": "CGAATTAG", "PBM E-score": 0.0675}
{"sequence": "GCGGACTA", "PBM E-score": -0.104}
{"sequence": "CACCTTCG", "PBM E-score": -0.112}
{"sequence": "GGGTATAC", "PBM E-score": -0.0951}
{"sequence": "ATACATTG", "PBM E-score": 0.153}
{"sequence": "ATGTAGGC", "PBM E-score": -0.0389}
{"sequence": "AGGCAACA", "PBM E-score": -0.0635}
{"sequence": "AGGCGGAA", "PBM E-score": 0.045}
{"sequence": "GGGCGGTA", "PBM E-score": -0.206}
{"sequence": "TCGCACAA", "PBM E-score": -0.00833}
{"sequence": "ACCCTAGA", "PBM E-score": -0.134}
{"sequence": "ACTAAAGA", "PBM E-score": 0.105}
{"sequence": "CAGTTTTA", "PBM E-score": 0.00126}
{"sequence": "AGTTACCC", "PBM E-score": -0.103}
{"sequence": "GCCAATGA", "PBM E-score": -0.0994}
{"sequence": "GACGCTGC", "PBM E-score": -0.0497}
{"sequence": "ACTCAACA", "PBM E-score": 0.167}
{"sequence": "GGACCGCA", "PBM E-score": -0.0991}
{"sequence": "CGTGAGGA", "PBM E-score": -0.0192}
{"sequence": "CTTACCGC", "PBM E-score": -0.0927}
{"sequence": "AGACGCAG", "PBM E-score": -0.0866}
{"sequence": "CTACCAAC", "PBM E-score": 0.0112}
{"sequence": "ACCGTACG", "PBM E-score": -0.133}
{"sequence": "GGATCGAC", "PBM E-score": -0.193}
{"sequence": "ACAACCCT", "PBM E-score": -0.202}
{"sequence": "ATTTGAAA", "PBM E-score": 0.222}
{"sequence": "ACATCAAA", "PBM E-score": 0.101}
{"sequence": "CCAAAGGA", "PBM E-score": -0.159}
{"sequence": "AGAGATGC", "PBM E-score": -0.0217}
{"sequence": "ATGTCCAG", "PBM E-score": -0.203}
{"sequence": "ATCCGGAT", "PBM E-score": -0.104}
{"sequence": "ATCCGGTA", "PBM E-score": -0.0898}
{"sequence": "AGAATTTC", "PBM E-score": -0.136}
{"sequence": "ATGTACAG", "PBM E-score": -0.0888}
{"sequence": "CAATTCGA", "PBM E-score": 0.0475}
{"sequence": "GCTTATCC", "PBM E-score": -0.0378}
{"sequence": "CGACGTAG", "PBM E-score": -0.095}
{"sequence": "CAGTCCAC", "PBM E-score": -0.198}
{"sequence": "CCAGGTAG", "PBM E-score": -0.213}
{"sequence": "ATCAGGAT", "PBM E-score": 0.0871}
{"sequence": "CTTCAAAG", "PBM E-score": 0.0508}
{"sequence": "AGTGGGGG", "PBM E-score": -0.433}
{"sequence": "AGAAGTTG", "PBM E-score": -0.163}
{"sequence": "TAATGTGA", "PBM E-score": 0.239}
{"sequence": "ATGGAGCC", "PBM E-score": -0.103}
{"sequence": "ACGAATCA", "PBM E-score": 0.23}
{"sequence": "CGGCCATC", "PBM E-score": -0.287}
{"sequence": "AATATGCT", "PBM E-score": 0.163}
{"sequence": "CAATCCTC", "PBM E-score": -0.114}
{"sequence": "TGACGCAA", "PBM E-score": 0.489}
{"sequence": "AACTGCAT", "PBM E-score": 0.148}
{"sequence": "CACCGGCG", "PBM E-score": -0.0103}
{"sequence": "AATACTGT", "PBM E-score": 0.094}
{"sequence": "AACCTGAT", "PBM E-score": 0.13}
{"sequence": "CCAGCTTA", "PBM E-score": -0.119}
{"sequence": "AATATAAG", "PBM E-score": 0.352}
{"sequence": "GGCAGAGA", "PBM E-score": -0.0315}
{"sequence": "GAGGACTC", "PBM E-score": -0.37}
{"sequence": "CCGTTTGC", "PBM E-score": -0.015}
{"sequence": "AACTCCTA", "PBM E-score": -0.0898}
{"sequence": "AGATATTG", "PBM E-score": 0.0964}
{"sequence": "TATAAGCA", "PBM E-score": 0.124}
{"sequence": "GTACCTGA", "PBM E-score": 0.0404}
{"sequence": "AAGCACTG", "PBM E-score": -0.1}
{"sequence": "CAAGGCAC", "PBM E-score": 0.0967}
{"sequence": "GTAGTTCA", "PBM E-score": -0.0987}
{"sequence": "CCCCGGGC", "PBM E-score": -0.277}
{"sequence": "CTGTGGAC", "PBM E-score": -0.263}
{"sequence": "CGTTTGAA", "PBM E-score": 0.183}
{"sequence": "CGTACGAG", "PBM E-score": -0.053}
{"sequence": "GCGTGAAC", "PBM E-score": -0.126}
{"sequence": "CTATGAAG", "PBM E-score": 0.0163}
{"sequence": "AAGGTGGC", "PBM E-score": -0.102}
{"sequence": "ATGCGCAT", "PBM E-score": 0.236}
{"sequence": "CGATGAGC", "PBM E-score": 0.0185}
{"sequence": "AATAGTAC", "PBM E-score": -0.0231}
{"sequence": "ATCGGGCG", "PBM E-score": -0.178}
{"sequence": "GACGCCGC", "PBM E-score": 0.271}
{"sequence": "ACCCGGCA", "PBM E-score": -0.143}
{"sequence": "CCGCAATA", "PBM E-score": 0.128}
{"sequence": "CAACAAAG", "PBM E-score": 0.165}
{"sequence": "ACAGTACG", "PBM E-score": 0.00835}
{"sequence": "GATACGAA", "PBM E-score": 0.0906}
{"sequence": "CAAATCGA", "PBM E-score": -0.0314}
{"sequence": "ATACGTTC", "PBM E-score": 0.0426}
{"sequence": "GGTGCTTA", "PBM E-score": -0.154}
{"sequence": "ACTCTATC", "PBM E-score": -0.0672}
{"sequence": "AAGGGTTA", "PBM E-score": 0.0261}
{"sequence": "ATTTTGCG", "PBM E-score": 0.117}
{"sequence": "GCGCCCCC", "PBM E-score": -0.243}
{"sequence": "CCGTCGAG", "PBM E-score": 0.0117}
{"sequence": "AAATAATT", "PBM E-score": 0.272}
{"sequence": "AATGAACC", "PBM E-score": 0.0281}
{"sequence": "ACCACCGT", "PBM E-score": -0.235}
{"sequence": "AATATTCC", "PBM E-score": 0.236}
{"sequence": "ACGGGGGG", "PBM E-score": -0.332}
{"sequence": "AGCCTCAC", "PBM E-score": -0.089}
{"sequence": "CCGAATGA", "PBM E-score": 0.161}
{"sequence": "CGGCGCAC", "PBM E-score": 0.141}
{"sequence": "GCTCTGTA", "PBM E-score": -0.0831}
{"sequence": "AGTAAAAA", "PBM E-score": 0.186}
{"sequence": "AGTAGGGA", "PBM E-score": 0.017}
{"sequence": "ATCTCCTC", "PBM E-score": -0.181}
{"sequence": "CTACGCTC", "PBM E-score": -0.173}
{"sequence": "CATCCGAG", "PBM E-score": -0.0981}
{"sequence": "CGTGTTAA", "PBM E-score": 0.0629}
{"sequence": "GGCACACA", "PBM E-score": 0.0237}
{"sequence": "GCTTTCAA", "PBM E-score": 0.0524}
{"sequence": "CGTGCCAC", "PBM E-score": 0.0375}
{"sequence": "CGACAGAA", "PBM E-score": 0.0668}
{"sequence": "ACAAAGGG", "PBM E-score": -0.131}
{"sequence": "CGGCTACG", "PBM E-score": 0.0292}
{"sequence": "GAGTCTAA", "PBM E-score": -0.0629}
{"sequence": "AGAGAACG", "PBM E-score": 0.063}
{"sequence": "ATGTTTAA", "PBM E-score": 0.164}
{"sequence": "AGAAGTCA", "PBM E-score": 0.0402}
{"sequence": "ATACTGTC", "PBM E-score": 0.161}
{"sequence": "AGGCGCGC", "PBM E-score": 0.103}
{"sequence": "CTCCTGCA", "PBM E-score": -0.315}
{"sequence": "CACAGCCG", "PBM E-score": 0.0811}
{"sequence": "AGTCCTTA", "PBM E-score": -0.0772}
{"sequence": "CCGTTAAA", "PBM E-score": -0.0355}
{"sequence": "CTCAGAAC", "PBM E-score": 0.102}
{"sequence": "AACATCGA", "PBM E-score": 0.2}
{"sequence": "GCCAGGGA", "PBM E-score": -0.205}
{"sequence": "ATCACAAA", "PBM E-score": 0.185}
{"sequence": "CGGTTCAA", "PBM E-score": -0.061}
{"sequence": "GGGGTAAC", "PBM E-score": -0.0602}
